Measured values published in paper PMC5640428.
No constants are given. Whether binding was seen depends on the method and setting. For part of these data: Binding seen in cells or lysates may run through a third protein. Some entries that bind do so weakly or less than the wild type. For part of these data: Where a sequence is shown, tags or fusion partners need not be part of it.

Sequences of proteins named here, by UniProt entry; tags and fusion partners are left off. A change or cut given only in a name is not applied to a line headed by its entry.
UniProt Q61644: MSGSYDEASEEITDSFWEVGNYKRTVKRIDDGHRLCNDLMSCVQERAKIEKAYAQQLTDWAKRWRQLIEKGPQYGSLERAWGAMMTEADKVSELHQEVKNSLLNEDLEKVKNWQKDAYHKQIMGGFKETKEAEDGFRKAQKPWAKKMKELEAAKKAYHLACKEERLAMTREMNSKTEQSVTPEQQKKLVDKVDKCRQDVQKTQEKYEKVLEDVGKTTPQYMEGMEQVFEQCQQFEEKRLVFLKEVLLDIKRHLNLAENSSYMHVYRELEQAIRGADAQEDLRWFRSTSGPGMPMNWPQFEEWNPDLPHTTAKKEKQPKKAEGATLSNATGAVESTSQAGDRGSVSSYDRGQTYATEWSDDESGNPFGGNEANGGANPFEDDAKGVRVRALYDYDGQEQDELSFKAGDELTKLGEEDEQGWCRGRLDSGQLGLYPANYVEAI
UniProt Q9WVE8: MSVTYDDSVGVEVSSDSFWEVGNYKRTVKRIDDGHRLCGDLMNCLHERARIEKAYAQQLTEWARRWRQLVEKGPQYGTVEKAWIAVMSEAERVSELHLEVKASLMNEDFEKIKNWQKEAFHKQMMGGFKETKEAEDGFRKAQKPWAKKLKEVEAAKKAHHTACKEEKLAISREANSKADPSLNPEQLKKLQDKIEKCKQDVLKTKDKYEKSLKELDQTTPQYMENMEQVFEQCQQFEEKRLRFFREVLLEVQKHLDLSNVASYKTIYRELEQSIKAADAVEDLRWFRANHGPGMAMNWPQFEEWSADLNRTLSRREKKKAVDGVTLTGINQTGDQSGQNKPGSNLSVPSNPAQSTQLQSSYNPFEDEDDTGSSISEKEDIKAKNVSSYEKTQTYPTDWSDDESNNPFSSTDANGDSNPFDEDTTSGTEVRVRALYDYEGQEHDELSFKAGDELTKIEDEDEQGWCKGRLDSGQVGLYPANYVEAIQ

Key:
myc-tagged KCC2b = target: T1, myc-tagged KCC2b (UniProt Q91V14); assay: co-IP; COS7 cells co-transfected with myc-tagged KCC2b and GFP-tagged PACSIN constructs; lysed in modified RIPA buffer; precipitated with anti-N-terminal KCC2b antibody (4 hr, 4°C); immunoblot
T1 sequence: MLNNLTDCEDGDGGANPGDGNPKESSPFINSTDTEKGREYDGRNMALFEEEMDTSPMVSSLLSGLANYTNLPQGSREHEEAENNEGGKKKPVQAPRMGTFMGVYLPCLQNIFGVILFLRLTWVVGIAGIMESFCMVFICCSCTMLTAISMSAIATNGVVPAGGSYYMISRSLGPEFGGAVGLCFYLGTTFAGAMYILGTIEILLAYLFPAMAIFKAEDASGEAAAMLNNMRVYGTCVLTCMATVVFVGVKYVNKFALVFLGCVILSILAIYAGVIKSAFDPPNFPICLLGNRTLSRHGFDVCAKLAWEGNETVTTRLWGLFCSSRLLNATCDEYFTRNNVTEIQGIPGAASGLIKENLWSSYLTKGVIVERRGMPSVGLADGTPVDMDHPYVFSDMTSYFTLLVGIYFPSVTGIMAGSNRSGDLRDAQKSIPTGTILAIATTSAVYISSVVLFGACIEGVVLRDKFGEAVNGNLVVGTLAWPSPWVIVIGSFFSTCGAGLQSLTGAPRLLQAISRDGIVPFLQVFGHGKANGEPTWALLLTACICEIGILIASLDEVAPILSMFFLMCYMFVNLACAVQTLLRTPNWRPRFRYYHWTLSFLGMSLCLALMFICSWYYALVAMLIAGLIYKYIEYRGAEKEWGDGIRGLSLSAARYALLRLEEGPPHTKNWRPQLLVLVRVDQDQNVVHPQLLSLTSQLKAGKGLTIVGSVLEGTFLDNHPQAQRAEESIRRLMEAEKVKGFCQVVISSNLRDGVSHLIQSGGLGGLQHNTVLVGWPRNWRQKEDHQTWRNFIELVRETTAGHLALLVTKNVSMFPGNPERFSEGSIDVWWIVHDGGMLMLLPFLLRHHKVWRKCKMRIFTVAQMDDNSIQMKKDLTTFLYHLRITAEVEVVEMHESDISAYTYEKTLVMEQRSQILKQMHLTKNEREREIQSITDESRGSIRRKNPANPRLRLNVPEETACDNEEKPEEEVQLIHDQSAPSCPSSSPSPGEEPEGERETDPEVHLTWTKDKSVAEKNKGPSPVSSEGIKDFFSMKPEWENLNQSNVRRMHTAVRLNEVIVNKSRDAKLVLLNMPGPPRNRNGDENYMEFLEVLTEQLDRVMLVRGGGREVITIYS

[1] = target: T2, native KCC2b (mouse (endogenous in brain)) (UniProt Q91V14); assay: co-IP; C12E9-solubilised whole-brain membrane fractions of adult mice; anti-N-terminal KCC2b (control IgY) or anti-PACSIN1 (control IgG) on beads without DMP cross-linking; immunoblot
T2 sequence: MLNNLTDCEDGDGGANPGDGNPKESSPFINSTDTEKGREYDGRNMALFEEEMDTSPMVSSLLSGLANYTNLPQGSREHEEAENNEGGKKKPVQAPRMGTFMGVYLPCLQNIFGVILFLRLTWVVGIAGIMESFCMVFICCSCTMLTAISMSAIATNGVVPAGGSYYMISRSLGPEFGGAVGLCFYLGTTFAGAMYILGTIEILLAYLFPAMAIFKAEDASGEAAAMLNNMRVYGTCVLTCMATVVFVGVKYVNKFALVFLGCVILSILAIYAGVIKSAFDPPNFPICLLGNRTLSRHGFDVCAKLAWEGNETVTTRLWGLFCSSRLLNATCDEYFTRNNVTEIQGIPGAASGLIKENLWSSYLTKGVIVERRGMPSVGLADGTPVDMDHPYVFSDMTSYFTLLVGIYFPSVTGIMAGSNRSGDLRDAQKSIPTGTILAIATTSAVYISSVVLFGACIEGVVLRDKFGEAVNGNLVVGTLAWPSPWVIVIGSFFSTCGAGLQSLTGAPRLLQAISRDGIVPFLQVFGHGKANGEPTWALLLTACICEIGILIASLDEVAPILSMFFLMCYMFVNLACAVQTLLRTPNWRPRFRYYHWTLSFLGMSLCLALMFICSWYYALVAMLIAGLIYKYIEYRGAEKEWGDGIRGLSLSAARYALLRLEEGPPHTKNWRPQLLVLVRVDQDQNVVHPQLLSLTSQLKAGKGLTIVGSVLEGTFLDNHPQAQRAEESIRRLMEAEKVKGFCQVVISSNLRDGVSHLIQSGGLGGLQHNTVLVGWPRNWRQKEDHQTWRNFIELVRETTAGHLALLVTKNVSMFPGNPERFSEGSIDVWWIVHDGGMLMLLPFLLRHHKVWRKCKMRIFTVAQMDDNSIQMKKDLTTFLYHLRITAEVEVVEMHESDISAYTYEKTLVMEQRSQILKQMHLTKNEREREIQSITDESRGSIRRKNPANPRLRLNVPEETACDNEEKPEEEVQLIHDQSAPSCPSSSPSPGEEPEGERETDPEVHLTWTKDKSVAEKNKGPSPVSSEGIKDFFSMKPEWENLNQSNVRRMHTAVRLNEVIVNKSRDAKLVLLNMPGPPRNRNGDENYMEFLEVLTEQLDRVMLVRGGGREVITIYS

[2] = target: T2, native KCC2b (mouse (endogenous in brain)); assay: native gel or EMSA; antibody-shift assay with 2D BN-PAGE: C12E9-solubilised complexes pre-incubated 1 hr with anti-N-terminal KCC2b antibody or chicken IgY; BN-PAGE, then SDS-PAGE and blots for KCC2 and PACSIN1
[3] = target: PACSIN1 (PKC and CSNK2A1 substrate in neurons) (mouse (endogenous in brain)) (UniProt Q61644); assay: co-IP; C12E9-solubilised whole-brain membrane fractions of adult mice; anti-N-terminal KCC2b (control IgY) or anti-PACSIN1 (control IgG) on beads without DMP cross-linking; immunoblot

Which binding (myc-tagged KCC2b) does the source give for “eGFP-PACSIN1 SH3 domain alone (from UniProt Q61644 382-441) (domain or fragment)” here?
The binding was “no binding”.

With “GFP-tagged PACSIN2 (from UniProt Q9WVE8 1-486)” as the molecule, how does the binding (myc-tagged KCC2b) read?
The binding was “binds weakly”.

How did the binding (myc-tagged KCC2b) turn out when “GFP-tagged PACSIN1 (from UniProt Q61644 1-441)” was run?
Its binding is “binds”.

“PACSIN1 (PKC and CSNK2A1 substrate in neurons) (from UniProt Q61644 1-441)” was tested. Which binding [1] did it give?
Its binding is “binds”.

And the binding [2]?
The binding was “binds”.

B1: native KCC2 (K+-Cl- cotransporter KCC2) (protein, UniProt Q91V14 1-1138)
chain: MSRRFTVTSLPPAASAASADPESRRHSVADPRRLPREDVKGDGNPKESSPFINSTDTEKGREYDGRNMALFEEEMDTSPMVSSLLSGLANYTNLPQGSREHEEAENNEGGKKKPVQAPRMGTFMGVYLPCLQNIFGVILFLRLTWVVGIAGIMESFCMVFICCSCTMLTAISMSAIATNGVVPAGGSYYMISRSLGPEFGGAVGLCFYLGTTFAGAMYILGTIEILLAYLFPAMAIFKAEDASGEAAAMLNNMRVYGTCVLTCMATVVFVGVKYVNKFALVFLGCVILSILAIYAGVIKSAFDPPNFPICLLGNRTLSRHGFDVCAKLAWEGNETVTTRLWGLFCSSRLLNATCDEYFTRNNVTEIQGIPGAASGLIKENLWSSYLTKGVIVERRGMPSVGLADGTPVDMDHPYVFSDMTSYFTLLVGIYFPSVTGIMAGSNRSGDLRDAQKSIPTGTILAIATTSAVYISSVVLFGACIEGVVLRDKFGEAVNGNLVVGTLAWPSPWVIVIGSFFSTCGAGLQSLTGAPRLLQAISRDGIVPFLQVFGHGKANGEPTWALLLTACICEIGILIASLDEVAPILSMFFLMCYMFVNLACAVQTLLRTPNWRPRFRYYHWTLSFLGMSLCLALMFICSWYYALVAMLIAGLIYKYIEYRGAEKEWGDGIRGLSLSAARYALLRLEEGPPHTKNWRPQLLVLVRVDQDQNVVHPQLLSLTSQLKAGKGLTIVGSVLEGTFLDNHPQAQRAEESIRRLMEAEKVKGFCQVVISSNLRDGVSHLIQSGGLGGLQHNTVLVGWPRNWRQKEDHQTWRNFIELVRETTAGHLALLVTKNVSMFPGNPERFSEGSIDVWWIVHDGGMLMLLPFLLRHHKVWRKCKMRIFTVAQMDDNSIQMKKDLTTFLYHLRITAEVEVVEMHESDISAYTYEKTLVMEQRSQILKQMHLTKNEREREIQSITDESRGSIRRKNPANPRLRLNVPEETACDNEEKPEEEVQLIHDQSAPSCPSSSPSPGEEPEGERETDPEVHLTWTKDKSVAEKNKGPSPVSSEGIKDFFSMKPEWENLNQSNVRRMHTAVRLNEVIVNKSRDAKLVLLNMPGPPRNRNGDENYMEFLEVLTEQLDRVMLVRGGGREVITIYS
How did the binding [3] turn out when B1 was run?
The binding was “binds”.
